# For part of these data: The strong results were mostly taken out for another list; the other results follow. The list shows a part of the results, in another mix than the full data.
# System: CIT
# Conditions: concentration: 1 μM,replicates: in singlicate; n = 1
# 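Also: KINOMEscan kinase panel screen.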
row,Structure (SMILES),%Inh [%]
1,O=C1NC(=O)C(c2ccc(Cl)cc2)=C1Nc1ccccc1 [SB-317661],0
2,O=C1NC(=O)c2c1c(-c1ccccc1)cc1[nH]c3ccc(O)cc3c21,51
3,CS(=O)(=O)c1ccccc1-c1nc(-c2ccc(F)cc2)c(-c2ccncc2)[nH]1 [SB-213663],97.2

# System: CLK1
# Conditions: concentration: 1 μM,replicates: in singlicate; n = 1
row,Structure (SMILES),%Inh [%]
1,O=C1NC(=O)C(c2ccc(Cl)cc2)=C1Nc1cccc(C(=O)O)c1 [SB-360737],36
2,O=C1NC(=O)C(c2ccccc2Cl)=C1Nc1cccc(C(=O)O)c1 [SB-390526],40
3,O=C1NC(=O)C(c2ccc(Cl)cc2)=C1Nc1ccc(O)c(Cl)c1 [SB-405367],76
4,O=C1NC(=O)C(c2ccc(Cl)cc2)=C1Nc1cccc(O)c1 [SB-333613],63
5,O=C1NC(=O)C(c2ccccc2)=C1Nc1cc(Cl)c(O)c(Cl)c1 [SB-390530],27
6,Cc1ccc(C)c(Oc2nccc(-c3c(-c4ccc(F)cc4)ncn3C3CCNCC3)n2)c1.O=C(O)C(F)(F)F.O=C(O)C(F)(F)F.O=C(O)C(F)(F)F [SB-284852],4
7,Cc1cc(C)cc(Oc2nccc(-c3c(-c4ccc(F)cc4)ncn3C3CCNCC3)n2)c1.O=C(O)C(F)(F)F.O=C(O)C(F)(F)F.O=C(O)C(F)(F)F [SB-284851],0
8,O=C1NC(=O)C(c2ccccc2)=C1Nc1ccc(Cl)c(C(=O)O)c1 [SB-390532],0
9,O=C1NC(=O)C(c2ccccc2Cl)=C1Nc1ccccc1 [SB-376715],3
10,O=C(O)c1ccc(-c2nc(-c3ccc(F)cc3)c(-c3ccncc3)[nH]2)cc1 [SB-202620],16
11,COc1cccc(C2=C(Nc3ccc(SC)cc3)C(=O)NC2=O)c1 [SB-331032],57
12,COc1ccc(C2=C(Nc3cccc(Cl)c3)C(=O)NC2=O)cc1 [SB-326892],83
13,CSc1ccc(NC2=C(c3cccc(Cl)c3)C(=O)NC2=O)cc1 [SB-341528],6
14,O=C1NC(=O)C(c2ccc(Cl)cc2)=C1Nc1ccccc1 [SB-317661],3
15,O=C1NC(=O)c2c1c(-c1ccccc1)cc1[nH]c3ccc(O)cc3c21,0
16,CS(=O)(=O)c1ccccc1-c1nc(-c2ccc(F)cc2)c(-c2ccncc2)[nH]1 [SB-213663],0

# System: CLK2
# Conditions: concentration: 1 μM,replicates: in singlicate; n = 1
row,Structure (SMILES),%Inh [%]
1,O=C1NC(=O)C(c2ccc(Cl)cc2)=C1Nc1cccc(C(=O)O)c1 [SB-360737],0
2,O=C1NC(=O)C(c2ccccc2Cl)=C1Nc1cccc(C(=O)O)c1 [SB-390526],88
3,O=C1NC(=O)C(c2ccc(Cl)cc2)=C1Nc1ccc(O)c(Cl)c1 [SB-405367],64
4,O=C1NC(=O)C(c2ccc(Cl)cc2)=C1Nc1cccc(O)c1 [SB-333613],73
5,O=C1NC(=O)C(c2ccccc2)=C1Nc1cc(Cl)c(O)c(Cl)c1 [SB-390530],17
6,Cc1ccc(C)c(Oc2nccc(-c3c(-c4ccc(F)cc4)ncn3C3CCNCC3)n2)c1.O=C(O)C(F)(F)F.O=C(O)C(F)(F)F.O=C(O)C(F)(F)F [SB-284852],0
7,Cc1cc(C)cc(Oc2nccc(-c3c(-c4ccc(F)cc4)ncn3C3CCNCC3)n2)c1.O=C(O)C(F)(F)F.O=C(O)C(F)(F)F.O=C(O)C(F)(F)F [SB-284851],0
8,O=C1NC(=O)C(c2ccccc2)=C1Nc1ccc(Cl)c(C(=O)O)c1 [SB-390532],0
9,O=C1NC(=O)C(c2ccccc2Cl)=C1Nc1ccccc1 [SB-376715],73
10,O=C(O)c1ccc(-c2nc(-c3ccc(F)cc3)c(-c3ccncc3)[nH]2)cc1 [SB-202620],0
11,COc1cccc(C2=C(Nc3ccc(SC)cc3)C(=O)NC2=O)c1 [SB-331032],65
12,COc1ccc(C2=C(Nc3cccc(Cl)c3)C(=O)NC2=O)cc1 [SB-326892],81
13,CSc1ccc(NC2=C(c3cccc(Cl)c3)C(=O)NC2=O)cc1 [SB-341528],0
14,O=C1NC(=O)C(c2ccc(Cl)cc2)=C1Nc1ccccc1 [SB-317661],38
15,O=C1NC(=O)c2c1c(-c1ccccc1)cc1[nH]c3ccc(O)cc3c21,5
16,CS(=O)(=O)c1ccccc1-c1nc(-c2ccc(F)cc2)c(-c2ccncc2)[nH]1 [SB-213663],0

# System: CLK3
# Conditions: concentration: 1 μM,replicates: in singlicate; n = 1
row,Structure (SMILES),%Inh [%]
1,O=C1NC(=O)C(c2ccc(Cl)cc2)=C1Nc1cccc(C(=O)O)c1 [SB-360737],0
2,O=C1NC(=O)C(c2ccccc2Cl)=C1Nc1cccc(C(=O)O)c1 [SB-390526],0
3,O=C1NC(=O)C(c2ccc(Cl)cc2)=C1Nc1ccc(O)c(Cl)c1 [SB-405367],11
4,O=C1NC(=O)C(c2ccc(Cl)cc2)=C1Nc1cccc(O)c1 [SB-333613],0
5,O=C1NC(=O)C(c2ccccc2)=C1Nc1cc(Cl)c(O)c(Cl)c1 [SB-390530],0
6,Cc1ccc(C)c(Oc2nccc(-c3c(-c4ccc(F)cc4)ncn3C3CCNCC3)n2)c1.O=C(O)C(F)(F)F.O=C(O)C(F)(F)F.O=C(O)C(F)(F)F [SB-284852],1
7,Cc1cc(C)cc(Oc2nccc(-c3c(-c4ccc(F)cc4)ncn3C3CCNCC3)n2)c1.O=C(O)C(F)(F)F.O=C(O)C(F)(F)F.O=C(O)C(F)(F)F [SB-284851],0
8,O=C1NC(=O)C(c2ccccc2)=C1Nc1ccc(Cl)c(C(=O)O)c1 [SB-390532],1
9,O=C1NC(=O)C(c2ccccc2Cl)=C1Nc1ccccc1 [SB-376715],0
10,O=C(O)c1ccc(-c2nc(-c3ccc(F)cc3)c(-c3ccncc3)[nH]2)cc1 [SB-202620],0
11,COc1cccc(C2=C(Nc3ccc(SC)cc3)C(=O)NC2=O)c1 [SB-331032],9
12,COc1ccc(C2=C(Nc3cccc(Cl)c3)C(=O)NC2=O)cc1 [SB-326892],0
13,CSc1ccc(NC2=C(c3cccc(Cl)c3)C(=O)NC2=O)cc1 [SB-341528],0
14,O=C1NC(=O)C(c2ccc(Cl)cc2)=C1Nc1ccccc1 [SB-317661],0
15,O=C1NC(=O)c2c1c(-c1ccccc1)cc1[nH]c3ccc(O)cc3c21,0
16,CS(=O)(=O)c1ccccc1-c1nc(-c2ccc(F)cc2)c(-c2ccncc2)[nH]1 [SB-213663],0
